# Measured values from paper PMC9911399, “Two distinct binding modes provide the RNA-binding protein RbFox with extraordinary sequence specificity”.
# Substitutions are numbered along the chain they refer to; changes in the protein carry UniProt numbers. The list shows a part of the results.
# T1: RBFOX1 RRM (Homo sapiens, UniProt Q9NWB1 109-208)
# T1 sequence: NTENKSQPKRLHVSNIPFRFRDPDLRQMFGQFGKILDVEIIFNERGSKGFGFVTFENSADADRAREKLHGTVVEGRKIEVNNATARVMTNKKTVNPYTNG
# B1: GGUGACC (DNA:RNA)
# RNA: GGGAGACCGGAAUUCAGAUUGUCCGGUGACCUUAAAUCCCGUCGUAGCCACCA
# DNA 1: CAATCTGAATTCCGGTCTCCC
# DNA 2: TGGTGGCTACGACGGGATT
# B2: CAAUUGC (DNA:RNA)
# RNA: B1 RNA with G25C, G26A, U27A, G28U, A29U, C30G
# DNA 1: CAATCTGAATTCCGGTCTCCC
# DNA 2: TGGTGGCTACGACGGGATT
# B3: CUUGCUU (DNA:RNA)
# RNA: B1 RNA with G25C, G26U, A29C, C30U, C31U
# DNA 1: CAATCTGAATTCCGGTCTCCC
# DNA 2: TGGTGGCTACGACGGGATT
# B4: UAAUUAC (DNA:RNA)
# RNA: B1 RNA with G25U, G26A, U27A, G28U, A29U, C30A
# DNA 1: CAATCTGAATTCCGGTCTCCC
# DNA 2: TGGTGGCTACGACGGGATT
# B5: GCACAUG (DNA:RNA)
# RNA: B1 RNA with G26C, U27A, G28C, C30U, C31G
# DNA 1: CAATCTGAATTCCGGTCTCCC
# DNA 2: TGGTGGCTACGACGGGATT
# B6: CGGGAUG (DNA:RNA)
# RNA: B1 RNA with G25C, U27G, C30U, C31G
# DNA 1: CAATCTGAATTCCGGTCTCCC
# DNA 2: TGGTGGCTACGACGGGATT
# B7: ACUCGUC (DNA:RNA)
# RNA: B1 RNA with G25A, G26C, G28C, A29G, C30U
# DNA 1: CAATCTGAATTCCGGTCTCCC
# DNA 2: TGGTGGCTACGACGGGATT
# B8: CGGGCUA (DNA:RNA)
# RNA: B1 RNA with G25C, U27G, A29C, C30U, C31A
# DNA 1: CAATCTGAATTCCGGTCTCCC
# DNA 2: TGGTGGCTACGACGGGATT
# B9: CGAAAUG (DNA:RNA)
# RNA: B1 RNA with G25C, U27A, G28A, C30U, C31G
# DNA 1: CAATCTGAATTCCGGTCTCCC
# DNA 2: TGGTGGCTACGACGGGATT
# B10: UAGGUUU (DNA:RNA)
# RNA: B1 RNA with G25U, G26A, U27G, A29U, C30U, C31U
# DNA 1: CAATCTGAATTCCGGTCTCCC
# DNA 2: TGGTGGCTACGACGGGATT
# B11: GUUCGCA (DNA:RNA)
# RNA: B1 RNA with G26U, G28C, A29G, C31A
# DNA 1: CAATCTGAATTCCGGTCTCCC
# DNA 2: TGGTGGCTACGACGGGATT
# B12: ACACACU (DNA:RNA)
# RNA: B1 RNA with G25A, G26C, U27A, G28C, C31U
# DNA 1: CAATCTGAATTCCGGTCTCCC
# DNA 2: TGGTGGCTACGACGGGATT
# B13: UUUCUGC (DNA:RNA)
# RNA: B1 RNA with G25U, G26U, G28C, A29U, C30G
# DNA 1: CAATCTGAATTCCGGTCTCCC
# DNA 2: TGGTGGCTACGACGGGATT
# B14: CUGCCCU (DNA:RNA)
# RNA: B1 RNA with G25C, G26U, U27G, G28C, A29C, C31U
# DNA 1: CAATCTGAATTCCGGTCTCCC
# DNA 2: TGGTGGCTACGACGGGATT
# B15: UCUGAGA (DNA:RNA)
# RNA: B1 RNA with G25U, G26C, C30G, C31A
# DNA 1: CAATCTGAATTCCGGTCTCCC
# DNA 2: TGGTGGCTACGACGGGATT
# B16: GUGAAAC (DNA:RNA)
# RNA: B1 RNA with G26U, U27G, G28A, C30A
# DNA 1: CAATCTGAATTCCGGTCTCCC
# DNA 2: TGGTGGCTACGACGGGATT
# B17: CCCGCAA (DNA:RNA)
# RNA: B1 RNA with G25C, G26C, U27C, A29C, C30A, C31A
# DNA 1: CAATCTGAATTCCGGTCTCCC
# DNA 2: TGGTGGCTACGACGGGATT
# B18: CCACCGU (DNA:RNA)
# RNA: GGGAGACCGGAAUUCAGAUUGUCCCCACCGUUUAAAUCCCGUCGUAGCCACCA
# DNA 1: CAATCTGAATTCCGGTCTCCC
# DNA 2: TGGTGGCTACGACGGGATT
# B19: GCACUCU (DNA:RNA)
# RNA: B18 RNA with C25G, C29U, G30C
# DNA 1: CAATCTGAATTCCGGTCTCCC
# DNA 2: TGGTGGCTACGACGGGATT
# B20: CGCACUG (DNA:RNA)
# RNA: B18 RNA with C26G, A27C, C28A, G30U, U31G
# DNA 1: CAATCTGAATTCCGGTCTCCC
# DNA 2: TGGTGGCTACGACGGGATT
# Molecular target: T1, RBFOX1 RRM
# Assay: EMSA; HiTS-Eq, 1 nM pool, 10 min; buffer printed only for the single-RNA assays: 10 mM Tris pH 7.5, 150 mM NaCl, 3.4 mM EDTA, 0.001% NP-40, 30 C
# Details: tags: His6 N-terminal (pET28a); label: 5' 32P
# Summary of the method: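 Purified wild-type or mutant RbFox RRM at increasing concentrations was equilibrated with 1 nM of 5′-radiolabelled RNA carrying 7 randomized nucleotides for 10 min in 50 µL. Unbound RNA was separated by 8% native PAGE and sequenced. Relative association constants came from read-count changes of each RNA species compared with the control reaction, normalised to the cognate motif.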
row,Binder,binding signal
1,B1,0.0203 KA relative to UGCAUGU
2,B2,0.00895 KA relative to UGCAUGU
3,B3,0.0152 KA relative to UGCAUGU
4,B4,0.00873 KA relative to UGCAUGU
5,B5,0.0141 KA relative to UGCAUGU
6,B6,0.0412 KA relative to UGCAUGU
7,B7,0.00135 KA relative to UGCAUGU
8,B8,0.0304 KA relative to UGCAUGU
9,B9,0.011 KA relative to UGCAUGU
10,B10,0.0191 KA relative to UGCAUGU
11,B11,0.0218 KA relative to UGCAUGU
12,B12,0.00126 KA relative to UGCAUGU
13,B13,0.0305 KA relative to UGCAUGU
14,B14,0.00803 KA relative to UGCAUGU
15,B15,0.0109 KA relative to UGCAUGU
16,B16,0.0109 KA relative to UGCAUGU
17,B17,0.00264 KA relative to UGCAUGU
18,B18,0.0012 KA relative to UGCAUGU
19,B19,0.00779 KA relative to UGCAUGU
20,B20,0.0157 KA relative to UGCAUGU
